One may read the Kd as the concentration at which binding is half-saturated.

From paper PMC9413201 (2022) come the findings set out here.

This experiment addresses T1, FtsB-derived peptide 24 64-87 (Escherichia coli, UniProt P0A6S5, N-terminal FITC-PEG2).
T1 chain: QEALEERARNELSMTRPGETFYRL
Description: fluorescence polarization. In general terms: Fluorescence polarisation rises when a labelled molecule tumbles more slowly, as on binding a larger partner.

B1: FtsQ […] (protein)
chain: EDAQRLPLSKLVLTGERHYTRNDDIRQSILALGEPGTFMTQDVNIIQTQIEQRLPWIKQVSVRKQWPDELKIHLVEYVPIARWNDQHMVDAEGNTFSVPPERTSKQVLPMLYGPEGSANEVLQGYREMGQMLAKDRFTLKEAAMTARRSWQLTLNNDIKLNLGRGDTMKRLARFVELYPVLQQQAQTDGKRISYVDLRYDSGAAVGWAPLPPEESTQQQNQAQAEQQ
B1 had a Kd of 9.6 µM.
